Laboratory results published in the supplement of paper PMC10126150.
Sequences with one replicate were seen in a single cluster, so their values are uncertain.

System: ATP
Assay: switch fluorescence ratio, 500 uM ATP over buffer (Cy3 cluster intensity, sum of 5 cycles each) (fold (ratio)); higher = stronger signal-on switching upon ATP binding; sequences stand for … in TCGTCGGCAGCGTCAGATGTGTATAAGAGACAGTTTTTTTTTTTTTTTTTTTTTTTTT…TC
Settings: aptamer strand: ATP DNA aptamer (quencher-CACCTGGGGGAGTATTGCGGAGGAAGG + anchor), 100 nM annealed; ATP concentration: 500 uM; one replicate
Procedure, shortened: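 Exposure to 500 uM ATP lasted 15 min at 22 °C before imaging, and a selection-buffer image was taken beforehand, for Cy3-labelled switching-strand clusters on a modified Illumina MiSeq flow-cell annealed to 100 nM quencher-labelled ATP aptamer. Five buffer/ATP cycles were run with NaOH stripping and re-annealing between them. The fluorescence ratio per cluster is summed target-cycle over summed buffer-cycle Cy3 intensity, averaged per switch-domain sequence. Clusters outside 100-1000 RFU were excluded.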

Sequence	switch fluorescence ratio
CTCAGTGCAA	2.44
CTCATAAGCG	0.981
CTCATAATGC	2.25
CTCATAGACG	0.988
CTCATAGTGA	1.01
CTCATGATCC	1.13
CTCCACTGCT	1.07
CTCCACTTAT	1.25
CTCCACTTTA	1.16
CTCCCCATAT	2.47
CTCCCGGAGG	1.09
CTCCCTGACG	1.09
CTCCGCAGGG	5.46
CTCCGGGATT	5.95
CTCCGGGTGG	3.95
CTCCTCATGA	1.87
CTCCTGGGGG	1.15
CTCGAAGGAA	1.04
CTCGAATTG	0.934
CTCGAGGACG	1.06
CTCGATCTCT	0.966
CTCGCCTATT	1.05
CTCGCGGTTT	1.01
CTCGCTCAGG	3.13
CTCGCTGGGA	0.948

Sequence	switch fluorescence ratio
CTCGCTGGGT	1
CTCGGGCGCA	1.04
CTCGGGTTGT	1.01
CTCGGTCCTA	1.02
CTCGTAAATG	0.976
CTCGTCTGT	0.972
CTCGTTAAGG	1.01
CTCTAAAATA	3.67
CTCTAAATTG	1.01
CTCTAACCTG	1.07
CTCTAATCAG	1
CTCTAATTGG	0.971
CTCTACGAAT	1.06
CTCTACGGTG	1.08
CTCTACTTAC	1.63
CTCTATTTTG	1.02
CTCTCAATGA	1.64
CTCTCAGGG	1.08
CTCTCCTTAA	1.04
CTCTCGGGGG	0.967
CTCTGAACGG	0.982
CTCTGATGT	1.02
CTCTGCACCT	2.84
CTCTGCGCTA	3.79
CTCTGCTACG	1.91

Sequence	switch fluorescence ratio
CTCTGGCAGC	2.41
CTCTGGCGCG	1.02
CTCTGGGAGT	0.989
CTCTGTACTT	1.14
CTCTGTAGCT	1.23
CTCTGTATCT	0.972
CTCTGTCCAC	1.31
CTCTTAGGAG	0.963
CTCTTCACAT	1.09
CTCTTCGATT	0.997
CTCTTCTAT	0.997
CTCTTGCATT	1.45
CTCTTTAAG	0.97
CTCTTTATGA	1.01
CTGAACGGGT	1.01
CTGAATCCTT	0.997
CTGACACTGT	1.02
CTGACCAGTT	1
CTGACCGGGA	1.08
CTGACTCAGC	1.88
CTGAGGCGCA	0.973
CTGAGGTGCA	1.08
CTGAGTCTGT	1.03
CTGAGTCTT	1.04
CTGAGTGAGA	0.979

Sequence	switch fluorescence ratio
CTGAGTGCGT	1.01
CTGAGTGGGC	1
CTGATAGAGA	1.03
CTGATATCAG	1.02
CTGATCAATA	1.48
CTGATCCTTT	1
CTGATCGACG	1.02
CTGATGGAGA	1
CTGATGTCGG	0.977
CTGATGTGGT	0.973
CTGATGTTCA	0.988
CTGATTCAAA	0.988
CTGCACGAGG	1.11
CTGCATGCTG	1.03
CTGCATGGT	1.07
CTGCCCGGGC	1.03
CTGCCGGGAT	1.09
CTGCGCTGGT	1.11
CTGCGTTTAA	1.02
CTGCTAAAAT	0.987
CTGCTACCTT	1.07
CTGCTAGGGT	0.934
CTGCTGTAGT	1.03
CTGCTTAGCA	1.02
CTGCTTTCTC	1.15

Sequence	switch fluorescence ratio
CTGGAACGCA	1.44
CTGGACAAGC	1.15
CTGGAGACTT	1.04
CTGGATACGG	1.05
CTGGATCGGG	1.01
CTGGCAAAGG	0.995
CTGGCCCGCA	2.08
CTGGCTCTAT	1.02
CTGGCTTCGT	1.01
CTGGGACTCG	1.02
CTGGGCTAGT	1
CTGGGGCTTG	0.985
CTGGGGTTCC	0.99
CTGGGTGACA	0.996
CTGGTAAAGG	0.989
CTGGTACTAG	0.99
CTGGTAGA	0.969
CTGGTGATAG	1.01
CTGGTGATTA	1.01
CTGGTGTAGG	1
CTGGTTGCTA	1.06
CTGGTTGGCC	1.01
CTGGTTGTAA	0.987
CTGTAAAAAG	1.04
CTGTAACGGA	1.05

Sequence	switch fluorescence ratio
CTGTAACGTC	1.09
CTGTACACGT	1.06
CTGTACCGGT	1
CTGTACTAAC	1.16
CTGTAGAATA	1.08
CTGTAGACTC	1.19
CTGTATGTT	0.954
CTGTATTCTT	1.02
CTGTCCAGAA	1.01
CTGTCCTAGC	0.993
CTGTCGGTTT	1
CTGTCTAATG	1.01
CTGTGAAATT	1.05
CTGTGAAGAG	0.998
CTGTGACGTC	1.04
CTGTGAGCTT	1.19
CTGTGCGCTT	1.25
CTGTGCGGGG	1.02
CTGTGCTCGC	1.06
CTGTGGAC	1.01
CTGTGGGCAC	1.02
CTGTGGTTA	0.972
CTGTGTCATG	0.94
CTGTGTCCCA	0.947
CTGTGTCCCG	1.01

Sequence	switch fluorescence ratio
CTGTGTGGCA	0.985
CTGTGTTATT	0.986
CTGTGTTCGA	0.973
CTGTTAGGCC	1.01
CTGTTCAGTA	0.993
CTGTTCATGT	0.994
CTGTTTAACG	0.956
CTGTTTAGAT	0.997
CTGTTTATAC	1.95
CTGTTTGTGT	1
CTGTTTTTAC	1.04
CTTAAAAAAA	0.96
CTTAAGCGCC	1
CTTAATGTGT	1
CTTAATTACG	1.08
CTTACGGATG	1.02
CTTACGTGGT	1.05
CTTAGCGGAA	1.01
CTTAGCGTAG	0.956
CTTAGGGCGC	0.937
CTTAGGGTTA	0.982
CTTAGTGGAC	1
CTTAGTGTTG	1.02
CTTATCTCTA	1.01
CTTATGTGAT	0.942

Sequence	switch fluorescence ratio
CTTATTATGT	1
CTTCAATTAC	1.69
CTTCACTCGA	0.986
CTTCAGACTG	1.09
CTTCAGGAGG	1.02
CTTCAGTGCC	1.03
CTTCCCAAAG	1.31
CTTCCTGTTT	1.01
CTTCGGCGAT	1.99
CTTCGGGTG	1.05
CTTCGTATGT	1.05
CTTCTACTAT	1.01
CTTCTATATT	0.981
CTTCTATCTG	1.02
CTTCTCGTTT	1.01
CTTCTTGTAT	1.02
CTTGACCGC	1.08
CTTGACGATG	0.95
CTTGACTCTT	0.995
CTTGAGCACC	1.09
CTTGAGGCCT	1.02
CTTGATCATG	0.954
CTTGCAACTT	1.05
CTTGCACGGC	1.01
CTTGCGGCTG	0.991
